This is an account of results in paper PMC4336329 (PLoS ONE, 2015).

Molecules are shown by their SMILES. Screen size: about 310,000 compounds; about 14,000 (4.5%) showed an effect of 50% or more. The effect is printed as a negative number. This is one part of the list. Where a SMILES comes first, the peptide text is derived from it. [ ]: non-standard residue; d: D form. The star is where a group is joined. PhAc = O=C(Cc1ccccc1)*
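Also: peak tail current of the secondary pulse compared with the same well before compound.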

This assay deals with human ether-à-go-go-related gene (hERG) potassium channel (human, UniProt Q12809). The experiment in a line: primary screen, population patch clamp on CHO cells stably expressing hERG.
human ether-à-go-go-related gene (hERG) potassium channel, sequence (Q12809 whole entry, looked up): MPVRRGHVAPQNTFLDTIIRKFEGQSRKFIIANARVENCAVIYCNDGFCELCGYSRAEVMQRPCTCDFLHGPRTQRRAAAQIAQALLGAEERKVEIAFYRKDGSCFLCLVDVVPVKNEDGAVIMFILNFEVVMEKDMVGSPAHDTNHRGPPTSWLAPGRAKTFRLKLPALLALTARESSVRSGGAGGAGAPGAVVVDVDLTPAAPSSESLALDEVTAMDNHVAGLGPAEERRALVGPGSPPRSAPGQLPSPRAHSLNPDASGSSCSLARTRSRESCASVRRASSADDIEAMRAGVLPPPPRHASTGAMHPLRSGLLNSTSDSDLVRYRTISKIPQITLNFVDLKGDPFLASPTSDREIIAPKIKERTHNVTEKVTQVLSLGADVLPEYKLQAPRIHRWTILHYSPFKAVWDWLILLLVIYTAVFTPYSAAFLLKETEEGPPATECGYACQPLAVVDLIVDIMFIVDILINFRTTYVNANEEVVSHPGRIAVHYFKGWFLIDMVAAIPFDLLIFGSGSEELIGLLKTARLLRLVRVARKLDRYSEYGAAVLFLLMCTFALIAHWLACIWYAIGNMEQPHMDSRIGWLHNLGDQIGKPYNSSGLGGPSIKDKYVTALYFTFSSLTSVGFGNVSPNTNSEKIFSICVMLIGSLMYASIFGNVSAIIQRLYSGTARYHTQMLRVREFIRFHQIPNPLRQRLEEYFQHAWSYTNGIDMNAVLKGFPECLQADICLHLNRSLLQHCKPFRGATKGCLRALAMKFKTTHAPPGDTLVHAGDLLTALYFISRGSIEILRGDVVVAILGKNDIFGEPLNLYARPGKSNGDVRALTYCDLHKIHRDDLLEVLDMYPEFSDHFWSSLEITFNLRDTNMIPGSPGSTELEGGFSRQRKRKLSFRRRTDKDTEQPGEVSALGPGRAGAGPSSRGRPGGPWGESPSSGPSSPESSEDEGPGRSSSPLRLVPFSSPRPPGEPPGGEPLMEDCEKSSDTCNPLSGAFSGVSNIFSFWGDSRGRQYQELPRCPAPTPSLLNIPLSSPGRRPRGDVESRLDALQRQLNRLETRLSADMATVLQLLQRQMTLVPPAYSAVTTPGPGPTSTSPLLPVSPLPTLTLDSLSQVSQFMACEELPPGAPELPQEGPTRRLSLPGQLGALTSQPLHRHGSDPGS
As to `N#Cc1ccccc1Sc1ccccc1C(=O)Nc1ccc(Br)cc1`, the “hERG current change (%, negative = inhibition) at 10uM” value is reported as 18.9%.
Under `Cc1ccc(-n2nc3c(=O)n(CCCC(=O)NCc4ccc(C)o4)nc(C)c3c2C)cc1` stands -12%.
For `C=CCn1c(COc2ccc(F)cc2)nnc1SCC(=O)NC(=O)NCc1ccco1`, the “hERG current change (%, negative = inhibition) at 10uM” value is -31.2%.
Under `S=C(Nc1ccccc1)Nn1cnnc1` stands 0.242%.
Then `O=C1C2CC=CCC2C(=O)N1c1ccc(NCCc2ccc(O)cc2)c([N+](=O)[O-])c1` (centres unmarked), with -25.1%; and `CC(=O)N(CCN(C(C)=O)c1ccccc1)c1ccccc1`, with 8.17%.
`CCCCNC(=O)CC1N=C2c3ccccc3N=C(SCC(=O)Nc3cccc(OC)c3)N2C1=O` (centres unmarked): the “hERG current change (%, negative = inhibition) at 10uM” value is given as -10.6%.
Then `O=C(NCc1ccc(OC(F)(F)F)cc1)C1CC2Cn3c(nc4ccccc43)C2N1Cc1ccccc1` (centres unmarked), with -62.1%; and `C=CCn1c(O)c(C(C)=NC2CCN(Cc3ccccc3)CC2)c(=O)[nH]c1=O`, with -55.7%.
Then `CS(=O)(=O)c1ccc2nc(NC(=O)c3ccc(N4CCCC4=O)cc3)sc2c1`, with 13.3%.
Under `CC(C)C[C@@H](NC(=O)[C@H]1CCCN1C(=O)Cc1ccccc1)C(N)=O` (PhAc-[dP]-[dL]-NH2) stands 31.7%.
With `CC(C)(C)OC(=O)N1CCC[C@@H]1C(=O)N1CCC(C(=O)O)CC1`, the “hERG current change (%, negative = inhibition) at 10uM” value worked out at 27.3%.
Under `O=C(O)C(=O)O.O=C(c1cccnc1)N1CCN(Cc2ccccc2Br)CC1` stands 4.7%.
Then `COC(=O)C1NC(=O)N2C(C(=O)OC)C(C)(C)S[C@H]12` (some centres unmarked), with 21.7%; and `CCOc1ccc(C2CC(c3ccccc3)Nc3nc(N)nn32)cc1` (centres unmarked), with -10.3%.
With `CCOC(=O)C1CCN(c2ncnc3nc[nH]c23)CC1`, the “hERG current change (%, negative = inhibition) at 10uM” value is given as -9.84%.
Under `CCOc1ccc(C(=O)Nc2ccccc2N2CCN(C(=O)c3ccccc3)CC2)cc1[N+](=O)[O-]` stands -83.3%; under `O=C(O)COc1ccccc1/C=C1\C(=O)Nc2ccc(Br)cc21`, 12.9%.
Then `CSc1nsc(SC)c1C(N)=O`, with 10.6%.
Under `COC(=O)C1=C(C)N(Cc2ccc(C)cc2)C(=O)/C1=C\c1cc(OC)c(OC)c(OC)c1` stands 9.73%; under `CCOC(=O)c1c(NC(=O)c2ccc(S(=O)(=O)N(C)CC3CCCO3)cc2)sc2c1CCN(C)C2.Cl` (centres unmarked), -25.8%.
Take `CCOC(=O)Cc1c(C)nc2c(-c3cccc(Br)c3)cnn2c1C`: the “hERG current change (%, negative = inhibition) at 10uM” value was 9.28%.
Then `Cc1ccc(Nc2nnc(SCC(=O)NC3CC3)s2)cc1`, with 9.41%.
